# Results reported in US12493045B2, “Multi-target crosslinkers and uses thereof” (The Regents of the University of California, priority 2018, dated 2025).
# Tests used:
# [1] = biological target: 14-3-3 protein expressed in E. coli cells (Homo sapiens, UniProt P63104); conditions: crosslinker applied to intact cells, UV 365 nm 15 min
# [2] = biological target: endogenous EGFR in MCF7 cells (Homo sapiens, UniProt P00533); assay: Crosslinking of endogenous EGFR on mammalian cell surface (Western blot); assay type: cell-based; conditions: with or without NHQM and UV
# UniProt P63104, sequence (P63104 whole entry): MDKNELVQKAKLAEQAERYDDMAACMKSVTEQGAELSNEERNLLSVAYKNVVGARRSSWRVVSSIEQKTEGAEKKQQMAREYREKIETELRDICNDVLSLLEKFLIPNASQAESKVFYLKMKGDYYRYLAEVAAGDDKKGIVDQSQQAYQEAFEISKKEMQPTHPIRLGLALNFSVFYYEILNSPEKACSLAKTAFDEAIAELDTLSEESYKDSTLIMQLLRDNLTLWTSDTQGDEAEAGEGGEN
smiles,measurement,setting,value
O=C(ON1C(=O)CCC1=O)c1ccc(OCc2ccccc2[N+](=O)[O-])c(C(F)F)c1 [NHQM],Dimeric crosslinking of 14-3-3 inside E. coli cells,[1],did not detect any 14-3-3 dimeric form
same,Endogenous EGFR dimerization,[2],detected only in the presence of UV and NHQM
